Measured values published in ChEMBL document CHEMBL4888484, “Replenishing the malaria drug discovery pipeline: Screening and hit evaluation of the MMV Hit Generation Library 1 (HGL1) against asexual blood stage Plasmodium falciparum ,using a nano luciferase reporter read-out” (2022).
The whole screen tested about 150,000 compounds, of which about 540 (0.36%) showed an effect of 50% or more. This is one part of the list.

test system: Plasmodium falciparum; experiment: Primary screen in NF54 nanoGlo assay, in single point, at 2uM, 72h; a lower Z score goes with more inhibition; type: functional, Erythrocyte; details: timepoint 72 hour

SMILES	% Inhibition [%]	Z score
O=C(OCc1ccc(C(F)(F)F)nc1)c1ccc(C(F)(F)F)nc1	35	-1
CN(Cc1cnccn1)C(=O)CCCc1ccccc1	-4	0.67
CCc1nc2c(c(OC3CCN(C(=O)NCc4ccco4)CC3)n1)CCOCC2	-8	0.93
O=C(c1c[nH]c(-c2ccccc2)n1)N1[C@H]2CCNC[C@@H]1CC2	-10	1.65
O=C1CCN(CC(=O)Nc2ccc(C(F)(F)F)cc2)CCN1	-12	1.38
CN(CC(=O)N1CCCC1)c1ncnc2cccc(F)c12	0	0.05
O=C(Nc1cnn(-c2nccs2)c1)c1cnc2ccccc2n1	-7	1.27
CCC(C)N1C(=O)[C@@H]2C(Cc3c[nH]c4ccccc34)NC3(C(=O)Nc4c(C)cccc43)[C@@H]2C1=O (stereo partly specified)	0	-0.06
Cn1ccc(C(=O)N(c2ccccc2F)C2CCCC2)cc1=O	-8	1.19
CNC(=O)C[C@H]1CCN(Cc2cnc(N(C)C)nc2)C1	-2	0.26
CCC(CC)(CC)NC(=O)CCc1ccccn1	-2	0.31
CC[C@H]1CCCN(Cc2ccc(OC)c(Cn3cncn3)c2)CC1	3	-0.5
CCNC(=O)c1ccc(NCCc2ccc[nH]2)nn1	0	0.04
Cc1cc(C)nc(CN(C)Cc2nc(C)c(C)s2)c1	-4	0.75
CN(c1ccc(Cl)c(C(=O)NCc2ccc(F)cc2)c1)S(C)(=O)=O	-6	0.79
CCOc1ccc(-c2cn3ccn(-c4cccc(F)c4)c(=O)c3n2)cc1	-9	1.48
Cc1cccc(S(=O)(=O)Nc2nccc(C3CC3)n2)c1F	18	-1.57
C=CCc1cc(CNC)cc(OC)c1O	0	0.02
Cn1ncc(CCC(=O)NC[C@@H](CO)Cc2ccccc2Cl)n1	2	-0.4
CC[C@H](NS(=O)(=O)CCCN1C(=O)c2ccccc2C1=O)c1ccc(Cl)cc1	-1	0.09
COc1cccc(CN2CCC[C@@]3(CCN(C(=O)CCOc4ccccc4)C3)C2)c1OC	-5	0.62
Cc1cccc(S(=O)(=O)n2cc3c(=O)n(C(C)C)c(=O)n(C(C)C)c3n2)c1	-2	0.21
O=C(Nc1ccccc1)c1ccc(N2CC(N3CCNC3=O)C2)nn1	-7	0.92
Cc1ccc(C)c(CN2CC(c3nc(C4CC4)no3)C2)c1	-9	1.74
CCN(C(=O)CCCc1ccccc1)c1nc(C)cs1	-4	0.76
Cc1nc(-c2cc(S(N)(=O)=O)ccc2F)n(-c2cccc3cccnc23)n1	-8	1.02
Cc1ccn(-c2cc(COC(=O)c3cncc(F)c3)ccn2)n1	-9	1.24

SMILES	% Inhibition [%]	Z score
C[C@H](C(=O)NCCc1ccco1)C1CCN(C(=O)c2cc3ccccc3[nH]2)CC1	-40	3.68
CS(=O)(=O)N(Cc1cccnc1)C1CN(C(=O)c2ccc3cc[nH]c3c2)C1	5	-0.88
CCS(=O)(=O)N1CCC[C@H](CNC(=O)C2CCCC2)C1	-8	0.81
C[C@H](c1ccc(C(=O)N2CCOC3(CCC3)C2)cc1)C(F)(F)F	-1	0.17
O=C(CCn1cncn1)Nc1ccc2c(Cl)ccc(Cl)c2n1	4	-0.41
CC(C)N(CCc1nccs1)C(=O)c1cncc(O)c1	-6	0.88
CC(O)CC1COCCN1C(=O)NCc1cccc(C(F)(F)F)c1 (stereo unspecified)	-4	0.51
Cc1nnc2sc(-c3ccc(NC(=O)Cc4ccccc4)cc3)nn12	4	-0.52
COCC1(C2CCC2)CN(C(=O)N[C@H]2CCc3c2ccc(Cl)c3Cl)C1	-6	0.89
Cc1cc(C(=O)Nc2ccnc(Oc3ccc(F)cc3F)c2)no1	33	-3.75
COc1nc(C)c(C(=O)N2[C@@H]3CC[C@H]2CNC(=O)C3)s1	14	-2.46
Cc1cnc(C)c(N2CCC(Oc3ccc4ccccc4c3)(C(=O)O)CC2)n1	-9	1.86
Cc1cc(COc2ccccc2)oc1C(=O)N1Cc2nc[nH]c2C[C@H]1C(=O)O	-4	0.78
COC(=O)N1CC(NC(=O)c2cc(-c3cc(C)oc3C)nc3onc(C)c23)C1	-2	0.26
COc1ccc(Cl)cc1NC(=O)CN1CCc2nc(NC(=O)c3ccoc3)sc2C1	11	-1.47
Cc1noc(C)c1C(=O)Nc1nc(C(F)(F)F)n[nH]1	-15	1.69
CC(C)C[C@H](N)C(=O)N(C)CCc1ccc(F)cc1	-9	1.11
CC(C)(C)n1cc(CN2CCC[C@@H]2CC(=O)c2ccc(F)cc2)nn1	-16	1.62
CCc1ccc(CNC(=O)c2ccc(-c3c(-c4ccc(F)cc4)ncn3C3CCCCC3)o2)cc1	-13	2.04
O=C(Cc1c[nH]c2ccccc12)N1CCC[C@H]1c1nc2ccccc2s1	-12	2.22
O=C(Nc1c2c(nn1-c1ccccc1)CS(=O)(=O)C2)C1CCCC1	-12	2.04
O=C(Nc1ccnn1C1CCN(CC2CCC2)CC1)c1ccc2c(c1)OCO2	3	-0.43
Cc1ccc(S(=O)(=O)N2CCC(c3c(C)n(Cc4c(F)cccc4Cl)c4ccccc34)CC2)c(C)c1	-3	0.39
Cc1[nH]nc(CCC(=O)NCCc2nc(C3CC3)no2)c1C	7	-0.7
Cc1nc2c(C(=O)NCCCN3CCOCC3)cccc2[nH]1	-10	1.07
COCc1c(C(=O)NCC[C@H]2CCCN2C)cnn1-c1ncc2c(n1)-c1ccccc1CCC2	3	-0.4
